{"source": "patent US10662169B2", "about": "“Catechol derivative and pharmaceutical composition comprising the same” (AUTOPHAGYSCIENCES INC., priority 2015, dated 2020)", "system": "LC3-II in primary hepatocytes", "experiment": "Autophagy activation: LC3-II Western immunoblotting in primary hepatocytes, ischemia-reperfusion model", "assay_type": "cell-based, C57BL/6 mice", "conditions": "for Autophagy-inducing capacity: LC3-II band density increase compared with that by Rapamycin (=1), ischemia-reperfusion", "procedure": "Primary hepatocyte was isolated from male C57BL/6 mice by a collagenase perfusion method which is a known method (Gastroenterology 2011, 141, 2188). Survival rate of the isolated cells was measured by trypan blue exclusion method. Autophagy was induced by ischemia-reperfusion method (Gastroenterology 2011, 141, 2188).\nSpecifically, in order to induce ischemia, hepatocytes were incubated at 37° C. in Krebs-Ringer-HEPES (KRH0) buffer (pH 6.2) in an anaerobic chamber for 2 hours. The respective hepatocytes were treated with DMSO, the compound prepared in Examples described above, or Rapamycin as a control substance, and then KRH buffer solution at pH 7.4 was treated under aerobic conditions for 1 hour to induce reperfusion. Subsequently, hepatocytes were lysed with an extraction buffer containing protease inhibitor cocktail (PBS solution containing 0.5% Triton X-100, 1 mM Na3VO4, etc.), and then fragmentation of DNA was performed by sonication. The amount of protein was measured with bovine serum albumin as a protein standard using Bio-Rad Protein Assay Kit (Cat No. 500-0002). After electrophoresis of 10-50 μg of total cell protein in 8-12% (w/v) polyacrylamide gel containing 0.1% SDS, and then the proteins present in a gel were transferred to PVDF membrane by electroblotting. Then, in order to block non-specific binding, the PVDF membrane was placed in a TBS-tween (tris-buffered saline-tween, Sigma Co.) solution containing 5% nonfat dry milk and reacted at room temperature for 1 hour. The filter was placed in a TBS-tween solution containing an antibody against LC3 protein (Cell Signaling), allowed to stand at 4° C. for 12 hours, and then labeled with a secondary antibody labeled with HRP (Horseradish Peroxidase, Sigma Co., Cat No. P0889). Then, bands were measured using ECL (Enhanced Chemiluminescence, Thermo Scientific, Cat No. 34080).\nThe induction of autophagy can be confirmed by an increase in specific LC3-II molecules. LC3 precursors are usually scattered in the cytoplasm, subjected to proteolytic cleavage, and present in the form of LC3-I. When autophagy is activated, the C-terminal glycine is modified to form LC3-II, which migrates to autophagosome and is distributed in puncta form.\nThe amount of LC3-II increased by the compound treatment was quantified by measuring the band density, and then compared with the amount of LC3-II increased by the treatment of Rapamycin used as a control substance, and the comparison values are shown in Table 1.", "note": "At least one read-out could not be matched to a standard name with certainty. At least one structure is not confirmed: it was looked up by name or label, or the drawing left a doubt."}
{"molecule": "COc1ccc(-c2ccc(C(=O)NC(C)C)s2)cc1OC", "note": "[Example 1, 5-(3,4-dimethoxyphenyl)-N-isopropylthiophene-2-carboxamide]", "values": [{"measurement": "Autophagy-inducing capacity", "value": 2.02}]}
{"molecule": "CC(C)NC(=O)c1ccc(-c2ccc3c(c2)OCO3)s1", "note": "[Example 2, 5-(benzo[d][1,3]dioxol-5-yl)-N-isopropylthiophene-2-carboxamide]", "values": [{"measurement": "Autophagy-inducing capacity", "value": 1.92}]}
{"molecule": "CC(C)NC(=O)c1ccc(-c2ccc3c(c2)OCCO3)s1", "note": "[Example 3, 5-(2,3-dihydrobenzo[b][1,4]dioxin-6-yl)-N-isopropylthiophene-2-carboxamide]", "values": [{"measurement": "Autophagy-inducing capacity", "value": 0.88}]}
{"molecule": "COc1ccc(-c2ccc(C(=O)NCC(C)C)s2)cc1OC", "note": "[Example 4, 5-(3,4-dimethoxyphenyl)-N-isobutylthiophene-2-carboxamide]", "values": [{"measurement": "Autophagy-inducing capacity", "value": 1.33}]}
{"molecule": "CC(C)CNC(=O)c1ccc(-c2ccc3c(c2)OCO3)s1", "note": "[Example 5, 5-(benzo[d][1,3]dioxol-5-yl)-N-isobutylthiophene-2-carboxamide]", "values": [{"measurement": "Autophagy-inducing capacity", "value": 2.05}]}
{"molecule": "CC(C)CNC(=O)c1ccc(-c2ccc3c(c2)OCCO3)s1", "note": "[Example 6, 5-(2,3-dihydrobenzo[b][1,4]dioxin-6-yl)-N-isobutylthiophene-2-carboxamide]", "values": [{"measurement": "Autophagy-inducing capacity", "value": 1.11}]}
{"molecule": "COc1ccc(-c2ccc(C(=O)Nc3ccccc3)s2)cc1OC", "note": "[Example 7, 5-(3,4-dimethoxyphenyl)-N-phenylthiophene-2-carboxamide]", "values": [{"measurement": "Autophagy-inducing capacity", "value": 1.52}]}
{"molecule": "O=C(Nc1ccccc1)c1ccc(-c2ccc3c(c2)OCO3)s1", "note": "[Example 8, 5-(benzo[d][1,3]dioxol-5-yl)-N-phenylthiophene-2-carboxamide]", "values": [{"measurement": "Autophagy-inducing capacity", "value": 1.24}]}
{"molecule": "O=C(Nc1ccccc1)c1ccc(-c2ccc3c(c2)OCCO3)s1", "note": "[Example 9, 5-(2,3-dihydrobenzo[b][1,4]dioxin-6-yl)-N-phenylthiophene-2-carboxamide]", "values": [{"measurement": "Autophagy-inducing capacity", "value": 1.39}]}
{"molecule": "O=C(Nc1ccccn1)c1ccc(-c2ccc3c(c2)OCO3)s1", "note": "[Example 10, 5-(benzo[d][1,3]dioxol-5-yl)-N-(pyridin-2-yl)thiophene-2-carboxamide]", "values": [{"measurement": "Autophagy-inducing capacity", "value": 0.65}]}
{"molecule": "O=C(NCc1ccccn1)c1ccc(-c2ccc3c(c2)OCO3)s1", "note": "[Example 11, 5-(benzo[d][1,3]dioxol-5-yl)-N-(pyridin-2-ylmethyl)thiophene-2-carboxamide]", "values": [{"measurement": "Autophagy-inducing capacity", "value": 0.88}]}
{"molecule": "O=C(NCc1ccccn1)c1ccc(-c2ccc3c(c2)OCCO3)s1", "note": "[Example 12, 5-(2,3-dihydrobenzo[b][1,4]dioxin-6-yl)-N-(pyridin-2-ylmethyl)thiophene-2-carboxamide]", "values": [{"measurement": "Autophagy-inducing capacity", "value": 0.54}]}
{"molecule": "CC(C)NC(=O)c1cnc(-c2ccc3c(c2)OCO3)s1", "note": "[Example 13, 2-(benzo[d][1,3]dioxol-5-yl)-N-Isopropylthiazole-5-carboxamide]", "values": [{"measurement": "Autophagy-inducing capacity", "value": 0.73}]}
{"molecule": "CC(C)NC(=O)c1cnc(-c2ccc3c(c2)OCCO3)s1", "note": "[Example 14, 2-(2,3-dihydrobenzo[b][1,4]dioxin-6-yl)-N-Isopropylthiazole-5-carboxamide]", "values": [{"measurement": "Autophagy-inducing capacity", "value": 0.57}]}
{"molecule": "CC(C)CNC(=O)c1cnc(-c2ccc3c(c2)OCO3)s1", "note": "[Example 15, 2-(benzo[d][1,3]dioxol-5-yl)-N-Isobutylthiazole-5-carboxamide]", "values": [{"measurement": "Autophagy-inducing capacity", "value": 0.29}]}
{"molecule": "CC(C)CNC(=O)c1cnc(-c2ccc3c(c2)OCCO3)s1", "note": "[Example 16, 2-(2,3-dihydrobenzo[b][1,4]dioxin-6-yl)-N-isobutylthiazole-5-carboxamide]", "values": [{"measurement": "Autophagy-inducing capacity", "value": 0.78}]}
{"molecule": "O=C(Nc1ccccc1)c1cnc(-c2ccc3c(c2)OCO3)s1", "note": "[Example 17, 2-(benzo[d][1,3]dioxol-5-yl)-N-phenylthiazole-5-carboxamide]", "values": [{"measurement": "Autophagy-inducing capacity", "value": 1.39}]}
{"molecule": "O=C(Nc1ccccc1)c1cnc(-c2ccc3c(c2)OCCO3)s1", "note": "[Example 18, 2-(2,3-dihydrobenzo[b][1,4]dioxin-6-yl)-N-phenylthiazole-5-carboxamide]", "values": [{"measurement": "Autophagy-inducing capacity", "value": 1.27}]}
{"molecule": "COC(=O)c1ccc(-c2ccc3c(c2)OCO3)s1", "note": "[Example 19, methyl 5-(benzo[d][1,3]dioxol-5-yl)thiophene-2-carboxylate]", "values": [{"measurement": "Autophagy-inducing capacity", "value": 0.77}]}
{"molecule": "CCOC(=O)c1cnc(-c2ccc3c(c2)OCO3)s1", "note": "[Example 20, ethyl 2-(benzo[d][1,3]dioxol-5-yl)thiazole-5-carboxylate]", "values": [{"measurement": "Autophagy-inducing capacity", "value": 0.79}]}
{"molecule": "CO[C@H]1C[C@@H]2CC[C@@H](C)[C@@](O)(O2)C(=O)C(=O)N2CCCC[C@H]2C(=O)O[C@H]([C@H](C)C[C@@H]2CC[C@@H](O)[C@H](OC)C2)CC(=O)[C@H](C)/C=C(\\C)[C@@H](O)[C@@H](OC)C(=O)[C@H](C)C[C@H](C)/C=C/C=C/C=C/1C", "note": "[Rapamycin, reference compound]", "values": [{"measurement": "Autophagy-inducing capacity", "value": 1}, {"measurement": "increase in LC3-II (autophagy induction), Western immunoblotting", "setting": "ischemia-reperfusion model, FIG. 1, FIG. 2", "value": "induce autophagy"}]}
